In patent US11618753B2 (priority 2018, dated 2023) one finds IC50 data, which are given here for 25 molecules.

Where a name gives a salt, the structure may show the parent alone.

In the test the test system is MLKL phosphorylation, HT29-L23 human colorectal adenocarcinoma cells. Kind of test: cells. The note with it: read-out: pMLKL HCS Cell Assay (IC50, uM).
What is called IC50 is the concentration that inhibits the measured activity by half. With `COc1ncc(-c2cc(C(F)(F)F)c3c(N)ncnn23)cc1C(=O)NC1CN(Cc2ccncc2)CC1F` (racemic) [Example 231, 5-[4-amino-5-(trifluoromethyl)pyrrolo[2,1-f][1,2,4]triazin-7-yl]-N-{4-fluoro-1-[(pyridin-4-yl)methyl]pyrrolidin-3-yl}-2-methoxypyridine-3-carboxamide], the half-inhibitory concentration (IC50) is 0.0073 µM.

Regarding `Nc1ncnn2c(-c3ccc(Cl)c(C(=O)N[C@@H]4CN(C(=O)C5(F)CC5)C[C@@H]4F)c3)cc(CN3CCC(C(F)(F)F)CC3)c12` [Example 1149, 5-(4-amino-5-{[4-(trifluoromethyl)piperidin-1-yl]methyl}pyrrolo[2,1-f][1,2,4]triazin-7-yl)-2-chloro-N-[(3R,4S)-4-fluoro-1-(1-fluorocyclopropanecarbonyl)pyrrolidin-3-yl]benzamide], the IC50 was found to be 0.0026 µM.

For the molecule `COc1ncc(-c2cc(C(F)(F)F)c3c(N)ncnn23)cc1C(=O)N[C@@H]1CN(C(=O)C2COC2)C[C@@H]1F` [Example 346, 5-[4-amino-5-(trifluoromethyl)pyrrolo[2,1-f][1,2,4]triazin-7-yl]-N-[(3R,4S)-4-fluoro-1-(oxetane-3-carbonyl)pyrrolidin-3-yl]-2-methoxypyridine-3-carboxamide], the IC50 worked out at 0.239 µM.

Consider `Nc1ncnn2c(-c3cccc(C(=O)NCCC(O)c4ccc(F)cc4)c3)cc(C(F)(F)F)c12` (stereo not shown) [Example 74, 3-[4-amino-5-(trifluoromethyl)pyrrolo[2,1-f][1,2,4]triazin-7-yl]-N-[3-(4-fluorophenyl)-3-hydroxypropyl]benzamide], for which the IC50 came to 0.03 µM.

As to `COc1ncc(-c2cc(C(F)(F)F)c3c(N)ncnn23)cc1C(=O)N[C@@H]1CN(S(=O)(=O)Cc2ccccn2)C[C@@H]1F` [Example 1494, 5-[4-amino-5-(trifluoromethyl)pyrrolo[2,1-f][1,2,4]triazin-7-yl]-N-[(3R,4S)-4-fluoro-1-[(pyridin-2-yl)methanesulfonyl]pyrrolidin-3-yl]-2-methoxypyridine-3-carboxamide], the IC50 was found to be 0.143 µM.

For `CCOc1ccc(-c2cc(C(F)(F)F)c3c(N)ncnn23)cc1C(=O)N[C@@H]1CN(C(=O)CC(C)C(F)(F)F)C[C@@H]1F` (stereo partly drawn) [Example 1101, 5-[4-amino-5-(trifluoromethyl)pyrrolo[2,1-f][1,2,4]triazin-7-yl]-2-ethoxy-N-[(3R,4S)-4-fluoro-1-(4,4,4-trifluoro-3-methylbutanoyl)pyrrolidin-3-yl]benzamide], the 50% inhibitory concentration (IC50) was found to be 0.0071 µM.

On to `CCC(O)(C(=O)N1C[C@H](F)[C@H](NC(=O)c2cc(-c3cc(C(F)(F)F)c4c(N)ncnn34)cc(F)c2C)C1)C(F)(F)F` (stereo partly drawn) [Example 1321, 5-[4-amino-5-(trifluoromethyl)pyrrolo-[2,1-f][1,2,4]triazin-7-yl]-3-fluoro-N-[(3R,4S)-4-fluoro-1-[2-hydroxy-2-(trifluoromethyl)butanoyl]pyrrolidin-3-yl]-2-methylbenzamide], for which the IC50 came to 0.0023 µM.

As to `COc1cc(F)c(-c2cc(CN3CCC(F)(F)CC3)c3c(N)ncnn23)cc1C(=O)N[C@@H]1CN(C(=O)[C@@](C)(O)C(F)(F)F)C[C@@H]1F` [Example 1570, 5-(4-amino-5-((4,4-difluoropiperidin-1-yl)methyl)pyrrolo[2,1-f][1,2,4]triazin-7-yl)-4-fluoro-N-((3R,4S)-4-fluoro-1-((R)-3,3,3-trifluoro-2-hydroxy-2-methylpropanoyl)pyrrolidin-3-yl)-2-methoxybenzamide], the IC50 was determined as 0.002 µM.

As for `COc1ncc(-c2cc(C(F)(F)F)c3c(N)ncnn23)cc1C(=O)N[C@@H]1CN(C(CC(F)(F)F)c2ccccc2)C[C@@H]1F` (single isomer, unassigned) [Example 446], the IC50 stood at 0.171 µM.

Consider `Nc1ncnn2c(-c3cc(C(=O)N[C@@H]4CN(C(=O)c5ncccc5F)C[C@@H]4F)c(Cl)cc3F)cc(C(F)(F)F)c12` [Example 404, 5-[4-amino-5-(trifluoromethyl)pyrrolo[2,1-f][1,2,4]triazin-7-yl]-2-chloro-4-fluoro-N-[(3R,4S)-4-fluoro-1-(3-fluoropyridine-2-carbonyl)pyrrolidin-3-yl] benzamide], for which the IC50 stood at 0.063 µM.

For the molecule `Cc1ccc(-c2cc(C(F)(F)F)c3c(N)ncnn23)cc1C(=O)N[C@@H]1CN(C(=O)c2cc(F)c(F)cc2F)C[C@@H]1F` [Example 1026, 5-[4-amino-5-(trifluoromethyl)pyrrolo[2,1-f][1,2,4]triazin-7-yl]-N-[(3R,4S)-4-fluoro-1-(2,4,5-trifluorobenzoyl)pyrrolidin-3-yl]-2-methylbenzamide], the IC50 turned out to be 0.00052 µM.

With `Cc1ncc(-c2cc(C(F)(F)F)c3c(N)ncnn23)cc1C(=O)NCCN1CCC(c2ccccc2)C1` (stereo not shown) [Example 178, 5-[4-amino-5-(trifluoromethyl)pyrrolo[2,1-f][1,2,4]triazin-7-yl]-2-methyl-N-[2-(3-phenylpyrrolidin-1-yl)ethyl]pyridine-3-carboxamide], the IC50 is 0.33 µM.

As for `COc1ncc(-c2cc(Cn3cccn3)c3c(N)ncnn23)cc1C(=O)N[C@@H]1CN(C(=O)C2CC(F)(F)C2)C[C@@H]1F` [Example 1709, 5-(5-((1H-pyrazol-1-yl)methyl)-4-aminopyrrolo[2,1-f][1,2,4]triazin-7-yl)-N-((3R,4S)-1-(3,3-difluorocyclobutane-1-carbonyl)-4-fluoropyrrolidin-3-yl)-2-methoxynicotinamide], the concentration for half-maximal inhibition (IC50) is 0.014 µM.

As for `CCc1ccc(-c2cc(C(F)(F)F)c3c(N)ncnn23)cc1C(=O)N[C@@H]1CN(C(=O)C2CCC(F)(F)CC2)C[C@@H]1F` [Example 973, 5-[4-amino-5-(trifluoromethyl)pyrrolo[2,1-f][1,2,4]triazin-7-yl]-N-[(3R,4S)-1-(4,4-difluorocyclohexanecarbonyl)-4-fluoropyrrolidin-3-yl]-2-ethylbenzamide], the IC50 is 0.0091 µM.

As to `CC(C)(CF)C(=O)N1C[C@H](F)[C@H](NC(=O)c2cccc(-c3cc(C(F)(F)F)c4c(N)ncnn34)c2)C1` [Example 88, 3-[4-amino-5-(trifluoromethyl)pyrrolo[2,1-f][1,2,4]triazin-7-yl]-N-[(3R,4S)-4-fluoro-1-(3-fluoro-2,2-dimethylpropanoyl)pyrrolidin-3-yl]benzamide], the IC50 was 0.117 µM.

Regarding `Nc1ncnn2c(-c3ccc(Cl)c(C(=O)N[C@@H]4CN(C(=O)c5ccc(F)cn5)C[C@@H]4F)c3)cc(C(F)(F)F)c12` [Example 958, 5-[4-amino-5-(trifluoromethyl)pyrrolo[2,1-f][1,2,4]triazin-7-yl]-2-chloro-N-[(3R,4S)-4-fluoro-1-(5-fluoropyridine-2-carbonyl)pyrrolidin-3-yl]benzamide], the IC50 was determined as 0.078 µM.

On to `CCC(O)(C(=O)N1C[C@H](F)[C@H](NC(=O)c2cc(-c3cc(C(F)(F)F)c4c(N)ncnn34)cc(F)c2Cl)C1)C(F)(F)F` (stereo partly drawn) [Example 1326, 5-[4-amino-5-(trifluoromethyl)pyrrolo-[2,1-f][1,2,4]triazin-7-yl]-2-chloro-3-fluoro-N-[(3R,4S)-4-fluoro-1-[2-hydroxy-2-(trifluoromethyl)butanoyl]-pyrrolidin-3-yl]benzamide], for which the IC50 was 0.0043 µM.

Consider `Nc1ncnn2c(-c3cccc(C(=O)N4CCC[C@H](Cc5ccc(F)cc5)C4)c3)cc(C(F)(F)F)c12` [Example 81, 7-{3-[(3R)-3-[(4-fluorophenyl)methyl)piperidine-1-carbonyl]phenyl}-5-(trifluoromethyl)pyrrolo[2,1-f][1,2,4]triazin-4-amine], for which the IC50 was found to be 0.038 µM.

For `COc1ncc(-c2cc(C(F)(F)F)c3c(N)ncnn23)cc1C(=O)NCCC(O)c1ccc(F)c(F)c1` (stereo not shown) [Example 134, 5-[4-amino-5-(trifluoromethyl)pyrrolo[2,1-f][1,2,4]triazin-7-yl]-N-[3-(3,4-difluorophenyl)-3-hydroxypropyl]-2-methoxypyridine-3-carboxamide], the half-maximal inhibitory concentration (IC50) worked out at 0.015 µM.

`Cc1ncc(-c2cc(C(F)(F)F)c3c(N)ncnn23)cc1C(=O)N[C@@H]1CN(C(=O)[C@](C)(O)C(F)(F)F)C[C@@H]1F` [Example 372, 5-[4-amino-5-(trifluoromethyl)pyrrolo [2,1-f][1,2,4]triazin-7-yl]-N-[(3R,4S)-4-fluoro-1-[(2S)-3,3,3-trifluoro-2-hydroxy-2-methylpropanoyl]pyrrolidin-3-yl]-2-methylpyridine-3-carboxamide, TFA]: the 50% inhibitory concentration (IC50) came to 0.117 µM.

For `Cc1cc(F)c(-c2cc(CN3CCC(F)(F)CC3)c3c(N)ncnn23)cc1C(=O)N[C@@H]1CN(C(=O)C(C)(C)C(F)(F)F)C[C@@H]1F` [Example 1657, 5-{4-amino-5-[(4,4-difIuoropiperidin-1-yl)methyl]pyrrolo[2,1-f][1,2,4]triazin-7-yl}-4-fluoro-N-[(3R,4S)-4-fluoro-1-(3,3,3-trifluoro-2,2-dimethylpropanoyl)pyrrolidin-3-yl]-2-methylbenzamide], the IC50 was determined as 0.0011 µM.

Regarding `COc1ncc(-c2cc(C(F)(F)F)c3c(N)ncnn23)cc1C(=O)NCCC(O)(c1ccc(Cl)cc1)C(C)C` (stereo not shown) [Example 146, 5-[4-amino-5-(trifluoromethyl)pyrrolo[2,1-f][1,2,4]triazin-7-yl]-N-[3-(4-chlorophenyl)-3-hydroxy-4-methylpentyl]-2-methoxypyridine-3-carboxamide], the IC50 was 0.419 µM.

As for `COc1ncc(-c2cc(C(F)(F)F)c3c(N)ncnn23)cc1C(=O)N[C@@H]1CN(CC(O)(C(F)(F)F)C(F)(F)F)C[C@@H]1F` [Example 1829, 5-(4-amino-5-(trifluoromethyl)pyrrolo[2,1-f][1,2,4]triazin-7-yl)-N-((3R,4S)-4-fluoro-1-(3,3,3-trifluoro-2-hydroxy-2-(trifluoromethyl)propyl)pyrrolidin-3-yl)-2-methoxynicotinamide], the concentration for half-maximal inhibition (IC50) stood at 0.0094 µM.

In the case of `COc1ncc(-c2c(C#N)cc3c(N)ncnn23)cc1C(=O)N[C@@H]1CN(C(=O)C(C)(C)F)C[C@@H]1F` [Example 561, 5-(4-amino-6-cyanopyrrolo[2,1-f][1,2,4]triazin-7-yl)-N-((3R,4S)-4-fluoro-1-(2-fluoro-2-methylpropanoyl)pyrrolidin-3-yl)-2-methoxynicotinamide], the IC50 stood at 0.271 µM.

For `Cc1c(F)cc(-c2cc(C(F)(F)F)c3c(N)ncnn23)cc1C(=O)N[C@@H]1CN(C(=O)c2ccccc2F)C[C@@H]1F` [Example 669, 5-[4-amino-5-(trifluoromethyl)pyrrolo[2,1-f][1,2,4]triazin-7-yl]-3-fluoro-N-[(3R,4S)-4-fluoro-1-(2-fluorobenzoyl)pyrrolidin-3-yl]-2-methylbenzamide], the IC50 came to 0.003 µM.
